Measurements from the supplement of paper PMC10369915.
This is one part of the list. Rule as the data show it: active = 3.2 or more and inactive = the rest. Only a few entries rise above the background.

Legend:
Experiment in all cases: enrichment score (SH2-bound / input frequency) (ratio); bacterial display of known human phosphotyrosine sites (pTyr-Var adds point mutants) read by sequencing; higher = stronger binding; tyrosines were phosphorylated by kinases first
Conditions in all cases: peptide library: pTyr-Var
SHP2 C-SH2 domain E139D = target: SHP2 C-SH2 domain E139D
[1] = target: SHP2 C-SH2 domain wild-type
SHP2 N-SH2 domain L43F = target: SHP2 N-SH2 domain L43F
SHP2 N-SH2 domain T42A = target: SHP2 N-SH2 domain T42A
SHP2 N-SH2 domain T52S = target: SHP2 N-SH2 domain T52S
[2] = target: SHP2 N-SH2 domain wild-type

Measured: enrichment score
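Also: displayed peptides selected on beads carrying the immobilized SH2 domain, with library peptides lacking any tyrosine serving as negative controls.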

DTCPPYVLSQG [GJB4_Y237]
inactive: SHP2 C-SH2 domain E139D 0.766 | [1] 1.03 | SHP2 N-SH2 domain L43F 0.735 | SHP2 N-SH2 domain T42A 0.594 | SHP2 N-SH2 domain T52S 0.631 | [2] 0.91

MSPPGYKLLTG [GJA1_Y286_V289L]
inactive: SHP2 C-SH2 domain E139D 0.984 | [1] 0.902 | SHP2 N-SH2 domain L43F 0.952 | SHP2 N-SH2 domain T42A 0.737 | SHP2 N-SH2 domain T52S 0.925 | [2] 1.06

KVDKEYEVHVR [GHR_Y226_R229H]
inactive: SHP2 C-SH2 domain E139D 0.655 | [1] 0.627 | SHP2 N-SH2 domain L43F 0.593 | SHP2 N-SH2 domain T42A 0.575 | SHP2 N-SH2 domain T52S 0.806 | [2] 0.732

DDERGYRRVRS [GIGYF2_Y268]
inactive: SHP2 C-SH2 domain E139D 0.351 | [1] 0.381 | SHP2 N-SH2 domain L43F 0.346 | SHP2 N-SH2 domain T42A 0.315 | SHP2 N-SH2 domain T52S 0.396 | [2] 0.378

PIQLFYTRKNT [GHR_Y86_R89K]
inactive: SHP2 C-SH2 domain E139D 0.24 | [1] 0.271 | SHP2 N-SH2 domain L43F 0.372 | SHP2 N-SH2 domain T42A 0.345 | SHP2 N-SH2 domain T52S 0.285 | [2] 0.328

RYLKDYGEFEV [GINS1_Y156_C152Y]
inactive: SHP2 C-SH2 domain E139D 0.849 | [1] 0.796 | SHP2 N-SH2 domain L43F 0.811 | SHP2 N-SH2 domain T42A 0.683 | SHP2 N-SH2 domain T52S 0.88 | [2] 0.828

RFLKDYGEFEV [GINS1_Y156_C152Y_YF]
inactive: SHP2 C-SH2 domain E139D 1.12 | [1] 0.938 | SHP2 N-SH2 domain L43F 1.04 | SHP2 N-SH2 domain T42A 0.707 | SHP2 N-SH2 domain T52S 1.15 | [2] 0.87

VASSLYDILAR [GLB1_Y294]
inactive: SHP2 C-SH2 domain E139D 1.46 | [1] 1.11 | SHP2 N-SH2 domain L43F 1.15 | SHP2 N-SH2 domain T42A 0.704 | SHP2 N-SH2 domain T52S 1.12 | [2] 1.23

SSVPDYLAAVD [GLB1_Y154_D151V]
inactive: SHP2 C-SH2 domain E139D 0.916 | [1] 0.938 | SHP2 N-SH2 domain L43F 0.797 | SHP2 N-SH2 domain T42A 0.825 | SHP2 N-SH2 domain T52S 0.886 | [2] 1

KVDKECEVRVR [GHR_Y226_Y226C]
inactive: SHP2 C-SH2 domain E139D 0.676 | [1] 0.898 | SHP2 N-SH2 domain L43F 0.717 | SHP2 N-SH2 domain T42A 0.626 | SHP2 N-SH2 domain T52S 0.761 | [2] 0.874

KVDKEYEVRVR [GHR_Y226]
inactive: SHP2 C-SH2 domain E139D 0.812 | [1] 0.726 | SHP2 N-SH2 domain L43F 0.634 | SHP2 N-SH2 domain T42A 0.638 | SHP2 N-SH2 domain T52S 0.678 | [2] 0.752

IKEFKYGIEEH [GJA1_Y137_K134E]
inactive: SHP2 C-SH2 domain E139D 0.993 | [1] 0.902 | SHP2 N-SH2 domain L43F 0.954 | SHP2 N-SH2 domain T42A 0.81 | SHP2 N-SH2 domain T52S 0.894 | [2] 0.864

MSPPGYKLVNG [GJA1_Y286_T290N]
inactive: SHP2 C-SH2 domain E139D 1.42 | [1] 1.16 | SHP2 N-SH2 domain L43F 1.11 | SHP2 N-SH2 domain T42A 1.03 | SHP2 N-SH2 domain T52S 1.36 | [2] 1.02

HLSPEYKQNEI [GJB1_Y243_R238H]
inactive: SHP2 C-SH2 domain E139D 0.569 | [1] 0.64 | SHP2 N-SH2 domain L43F 0.654 | SHP2 N-SH2 domain T42A 0.761 | SHP2 N-SH2 domain T52S 0.458 | [2] 0.68

SDVNKYSTAFG [GJB3_Y16_G12D]
inactive: SHP2 C-SH2 domain E139D 0.616 | [1] 0.61 | SHP2 N-SH2 domain L43F 0.657 | SHP2 N-SH2 domain T42A 0.465 | SHP2 N-SH2 domain T52S 0.589 | [2] 0.701

PKEQKYSFLQD [GH1_Y68_N73D]
inactive: SHP2 C-SH2 domain E139D 0.723 | [1] 0.858 | SHP2 N-SH2 domain L43F 0.789 | SHP2 N-SH2 domain T42A 0.622 | SHP2 N-SH2 domain T52S 0.692 | [2] 0.446

GSLEDYVRETN [GIMAP6_Y176]
inactive: SHP2 C-SH2 domain E139D 0.646 | [1] 0.635 | SHP2 N-SH2 domain L43F 0.563 | SHP2 N-SH2 domain T42A 0.684 | SHP2 N-SH2 domain T52S 0.85 | [2] 0.624

DTCPPYVLSQV [GJB4_Y237_G242V]
inactive: SHP2 C-SH2 domain E139D 0.816 | [1] 0.889 | SHP2 N-SH2 domain L43F 0.808 | SHP2 N-SH2 domain T42A 0.552 | SHP2 N-SH2 domain T52S 0.824 | [2] 0.839

SDQPDYDSVAS [GIT2_Y392_N387S]
inactive: SHP2 C-SH2 domain E139D 0.46 | [1] 0.437 | SHP2 N-SH2 domain L43F 0.379 | SHP2 N-SH2 domain T42A 0.384 | SHP2 N-SH2 domain T52S 0.513 | [2] 0.459
